Test results published in PubChem BioAssay AID240 (DTP/NCI, 2004).
Inconclusive results and toxic doses are left out. The source holds more than one record for some entries. The other results are left out here. An entry can have further records. The records of an entry repeat one measurement across runs, samples, wells, individuals or studies.

Test system: Lymphoma 4 ip in BDF1 mice, median survival
Assay: NCI In Vivo Anticancer Drug Screen. Data for tumor model Lymphoma 4 (intraperitoneal) in B6D2F1 (BDF1) mice
Conditions: endpoint: median survival time; dose: 0.25 mg/kg/injection; schedule: Q01DX010 (ip); vehicle: saline; higher = longer survival
Experimental: The antitumor activity of compounds was measured in mice bearing transplantable tumors. Survival or tumor size were measured and the results are expressed as the measurement made in the treated group (T) divided by the measurement made in the vehicle treated control group (C). The tumor model used in this assay is Lymphoma 4 (intraperitoneal) in B6D2F1 (BDF1) mice

CC[C@]1(O)C[C@H]2CN(CCc3c([nH]c4ccccc34)[C@@](C(=O)OC)(c3cc4c(cc3OC)N(C=O)[C@H]3[C@@](O)(C(=O)OC)[C@H](OC(C)=O)[C@]5(CC)C=CCN6CC[C@]43[C@@H]65)C2)C1
T/C: 101 % of control and 190 % of control
